In patent publication US10751422B2, “Antibody drug conjugates (ADC) that bind to FLT3 proteins” (AGENSYS, INC., priority 2015, dated 2020):

Columns and labels:
EOL-1 = EOL-1 cell growth with human FLT3 ligand and antibody (Cell Titer Glo, 5 days); assay type: cell-based; conditions: 50, 10 or 5 ng/mL human FLT3 ligand, 10, 1, 0.1 μg/mL antibody
Method: The ability of FLT3 antibodies (CHv62.21 and v62-1b37.1) to mediate the effect of human FLT3 ligand was evaluated using the human leukemia EOL-1 cell line, which endogenously expresses FLT3. Isotype control antibody (mLys-1c3.1) was also used. […] The next day, cells were treated with 50, 10 or 5 ng/mL of human FLT3 ligand (in 25 μl of complete media) and 10, 1, 0.1 and 0 μg/mL of test antibody (in 25 μl of complete media). Media alone was used as the untreated control. […] At the end of the incubation period, 100 μl of Cell Titer Glo was added to each well and incubated for 30 minutes, shaking, at room temperature.

cell surface FLT3 = cell surface FLT3 (Homo sapiens, UniProt P36888); test: Binding of recombinant MAb to cell surface FLT3 by flow cytometry
Source text: To express CHv62.21 MAb recombinantly in transfected cells, v62.21 hybridoma MAb variable heavy and light chain sequences were cloned upstream of the human heavy chain IgG and human light chain IgK constant regions respectively. The complete CHv62.21 MAb human heavy chain and light chain cassettes were cloned downstream of the CMV promoter/enhancer in a cloning vector. The recombinant CHv62.21 MAb expressing construct was transfected into CHO cells for stable expression in the Lonza GS system (Lonza, Basel, Switzerland). The CHv62.21 MAb secreted from recombinant CHO cells was purified and evaluated for binding to cell surface FLT3 by flow cytometry.
The CHv62.21 MAb secreted from recombinant cells is also evaluated for binding to FLT3 recombinant protein by ELISA.
To express CHv62.21pAF recombinantly in transfected cells, v62-1b21 hybridoma MAb variable heavy and light chain sequences were cloned upstream of the human heavy chain IgG and human light chain IgK constant regions respectively. The complete CHv62.21 MAb human heavy chain and light chain cassettes were cloned downstream of the CMV promoter/enhancer in a cloning vector. […] The CHv62.21pAF secreted from the stable subclone was purified and evaluated for binding to cell surface FLT3 by flow cytometry.

B1: CHv62.21: FLT3 MAb, human IgG1/kappa, heavy chain SEQ ID NO: 9, light chain SEQ ID NO: 10, CHO cell ATCC PTA-121831 (antibody, listed as Homo sapiens)
heavy: EVQLVESGGGLVRPGGSLRLSCAASGFTFSGYSINWVRQAPGKGLEWVSSISSSSNYIYYADSVKGRFTISRDNAKNSLYLQMNSLRAEDTAVYYCAREGFIAGTTFDAFDIWGQGTMVTVSS[skipping human IgG1 constant region]
light: DIQMTQSPSSLSASVGDRVTITCRASQGIRNDLGWYQQKPGKAPKRLIYAASSLQSGVPSRFSGSGSGTEFTLTISSLQPEDFATYYCLQHNGFPYTFGQGTKLEIKRTVAAPSVFIFPPSDEQLKSGTASVVCLLNNFYPREAKVQWKVDNALQSGNSQESVTEQDSKDSTYSLSSTLTLSKADYEKHKVYACEVTHQGLSSPVTKSFNRGEC
modifications: CHv62.21 heavy chain; CHv62.21 light chain
effect on growth of EOL-1 cells in the presence of FLT3 ligand (EOL-1): does not have any effect on growth
binding to FLT3 compared with hybridoma-derived v62.21 (cell surface FLT3; CHO expressed vs hybridoma): binds FLT3 similarly to the v62.21 purified from hybridoma
binding to cell surface FLT3 (cell surface FLT3; MAb secreted from recombinant CHO cells, flow cytometry): binds to FLT3 on the cell surface
